These results are taken from article PMC9911399, “Two distinct binding modes provide the RNA-binding protein RbFox with extraordinary sequence specificity”.

Where a chain is given by its changes, count along the chain named. Some of the results follow.

To fix the notation:
T1: RBFOX1 RRM RbFoxmut (Fox-RRM*) (Homo sapiens, UniProt Q9NWB1 109-208, R118D;E147R;N151S;E152T)
T1 sequence: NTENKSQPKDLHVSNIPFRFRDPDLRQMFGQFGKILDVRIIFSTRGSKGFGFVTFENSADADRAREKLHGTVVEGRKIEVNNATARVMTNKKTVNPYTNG

B1: AUCACAU (DNA:RNA)
RNA: GGGAGACCGGAAUUCAGAUUGUCCAUCACAUUUAAAUCCCGUCGUAGCCACCA
DNA 1: CAATCTGAATTCCGGTCTCCC
DNA 2: TGGTGGCTACGACGGGATT
B2: AAGCGCC (DNA:RNA)
RNA: B1 RNA with U26A, C27G, A28C, C29G, A30C, U31C
DNA 1: CAATCTGAATTCCGGTCTCCC
DNA 2: TGGTGGCTACGACGGGATT
B3: GUGACGU (DNA:RNA)
RNA: B1 RNA with A25G, C27G, A30G
DNA 1: CAATCTGAATTCCGGTCTCCC
DNA 2: TGGTGGCTACGACGGGATT
B4: ACCCGCC (DNA:RNA)
RNA: B1 RNA with U26C, A28C, C29G, A30C, U31C
DNA 1: CAATCTGAATTCCGGTCTCCC
DNA 2: TGGTGGCTACGACGGGATT
B5: AACAAUA (DNA:RNA)
RNA: B1 RNA with U26A, C29A, A30U, U31A
DNA 1: CAATCTGAATTCCGGTCTCCC
DNA 2: TGGTGGCTACGACGGGATT
B6: AUGACCC (DNA:RNA)
RNA: B1 RNA with C27G, A30C, U31C
DNA 1: CAATCTGAATTCCGGTCTCCC
DNA 2: TGGTGGCTACGACGGGATT
B7: UGGGUGU (DNA:RNA)
RNA: B1 RNA with A25U, U26G, C27G, A28G, C29U, A30G
DNA 1: CAATCTGAATTCCGGTCTCCC
DNA 2: TGGTGGCTACGACGGGATT
B8: GAAGUUC (DNA:RNA)
RNA: GGGAGACCGGAAUUCAGAUUGUCCGAAGUUCUUAAAUCCCGUCGUAGCCACCA
DNA 1: CAATCTGAATTCCGGTCTCCC
DNA 2: TGGTGGCTACGACGGGATT
B9: UGGUGCG (DNA:RNA)
RNA: GGGAGACCGGAAUUCAGAUUGUCCUGGUGCGUUAAAUCCCGUCGUAGCCACCA
DNA 1: CAATCTGAATTCCGGTCTCCC
DNA 2: TGGTGGCTACGACGGGATT
B10: GCAUUUA (DNA:RNA)
RNA: B8 RNA with A26C, G28U, C31A
DNA 1: CAATCTGAATTCCGGTCTCCC
DNA 2: TGGTGGCTACGACGGGATT
B11: UCGCCCG (DNA:RNA)
RNA: B9 RNA with G26C, U28C, G29C
DNA 1: CAATCTGAATTCCGGTCTCCC
DNA 2: TGGTGGCTACGACGGGATT
B12: AGGUAGA (DNA:RNA)
RNA: B9 RNA with U25A, G29A, C30G, G31A
DNA 1: CAATCTGAATTCCGGTCTCCC
DNA 2: TGGTGGCTACGACGGGATT
B13: AUUGUAC (DNA:RNA)
RNA: B1 RNA with C27U, A28G, C29U, U31C
DNA 1: CAATCTGAATTCCGGTCTCCC
DNA 2: TGGTGGCTACGACGGGATT
B14: AUCAUGG (DNA:RNA)
RNA: B1 RNA with C29U, A30G, U31G
DNA 1: CAATCTGAATTCCGGTCTCCC
DNA 2: TGGTGGCTACGACGGGATT
B15: AUGAUUA (DNA:RNA)
RNA: B1 RNA with C27G, C29U, A30U, U31A
DNA 1: CAATCTGAATTCCGGTCTCCC
DNA 2: TGGTGGCTACGACGGGATT
B16: UCACCGU (DNA:RNA)
RNA: B1 RNA with A25U, U26C, C27A, A28C, A30G
DNA 1: CAATCTGAATTCCGGTCTCCC
DNA 2: TGGTGGCTACGACGGGATT
B17: GCGCUCU (DNA:RNA)
RNA: B8 RNA with A26C, A27G, G28C, U30C, C31U
DNA 1: CAATCTGAATTCCGGTCTCCC
DNA 2: TGGTGGCTACGACGGGATT
B18: AAUAUCA (DNA:RNA)
RNA: B1 RNA with U26A, C27U, C29U, A30C, U31A
DNA 1: CAATCTGAATTCCGGTCTCCC
DNA 2: TGGTGGCTACGACGGGATT
B19: UAUACGA (DNA:RNA)
RNA: B1 RNA with A25U, U26A, C27U, A30G, U31A
DNA 1: CAATCTGAATTCCGGTCTCCC
DNA 2: TGGTGGCTACGACGGGATT
B20: ACUCGGC (DNA:RNA)
RNA: B1 RNA with U26C, C27U, A28C, C29G, A30G, U31C
DNA 1: CAATCTGAATTCCGGTCTCCC
DNA 2: TGGTGGCTACGACGGGATT
B21: GUGGUUC (DNA:RNA)
RNA: B8 RNA with A26U, A27G
DNA 1: CAATCTGAATTCCGGTCTCCC
DNA 2: TGGTGGCTACGACGGGATT
B22: GCCACAA (DNA:RNA)
RNA: B1 RNA with A25G, U26C, U31A
DNA 1: CAATCTGAATTCCGGTCTCCC
DNA 2: TGGTGGCTACGACGGGATT
B23: UCCUGCG (DNA:RNA)
RNA: B9 RNA with G26C, G27C
DNA 1: CAATCTGAATTCCGGTCTCCC
DNA 2: TGGTGGCTACGACGGGATT
B24: GGACCAU (DNA:RNA)
RNA: B1 RNA with A25G, U26G, C27A, A28C
DNA 1: CAATCTGAATTCCGGTCTCCC
DNA 2: TGGTGGCTACGACGGGATT
B25: UGACCUC (DNA:RNA)
RNA: B8 RNA with G25U, A26G, G28C, U29C
DNA 1: CAATCTGAATTCCGGTCTCCC
DNA 2: TGGTGGCTACGACGGGATT
B26: UAUUCAC (DNA:RNA)
RNA: B1 RNA with A25U, U26A, C27U, A28U, U31C
DNA 1: CAATCTGAATTCCGGTCTCCC
DNA 2: TGGTGGCTACGACGGGATT
B27: ACCUAAA (DNA:RNA)
RNA: B1 RNA with U26C, A28U, C29A, U31A
DNA 1: CAATCTGAATTCCGGTCTCCC
DNA 2: TGGTGGCTACGACGGGATT
B28: UUACUCA (DNA:RNA)
RNA: B8 RNA with G25U, A26U, G28C, U30C, C31A
DNA 1: CAATCTGAATTCCGGTCTCCC
DNA 2: TGGTGGCTACGACGGGATT
B29: CCCACUA (DNA:RNA)
RNA: B1 RNA with A25C, U26C, A30U, U31A
DNA 1: CAATCTGAATTCCGGTCTCCC
DNA 2: TGGTGGCTACGACGGGATT
B30: AGGCUCG (DNA:RNA)
RNA: B9 RNA with U25A, U28C, G29U
DNA 1: CAATCTGAATTCCGGTCTCCC
DNA 2: TGGTGGCTACGACGGGATT
B31: GGAGUGC (DNA:RNA)
RNA: B8 RNA with A26G, U30G
DNA 1: CAATCTGAATTCCGGTCTCCC
DNA 2: TGGTGGCTACGACGGGATT

The assay addresses T1, RBFOX1 RRM RbFoxmut (Fox-RRM*). The assay can be described thus: EMSA; HiTS-Eq, 1 nM pool, 10 min; buffer printed only for the single-RNA assays: 10 mM Tris pH 7.5, 150 mM NaCl, 3.4 mM EDTA, 0.001% NP-40, 30 C. Conditions: tags: His6 N-terminal (pET28a); label: 5' 32P. The essentials:
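A pool of RNA with 7 randomized nucleotides, 5′-radiolabelled and with DNA-annealed flanks, was equilibrated at 1 nM for 10 min in 50 µL with purified RbFox RRM, wild type or mutant, across increasing protein concentrations. Free RNA was separated by 8% native PAGE, excised, reverse-transcribed, barcoded by PCR and sequenced. Relative association constants were obtained from read-count changes of each RNA species versus the control reaction and normalised to the cognate motif.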
Turning to B1, the binding signal is 0.0944 KA relative to UGCAUGU.
With B2, the binding signal was 0.134 KA relative to UGCAUGU.
Regarding B3, the binding signal is 0.102 KA relative to UGCAUGU.
In the case of B4 it was 0.109 KA relative to UGCAUGU; in that of B5, 0.0855 KA relative to UGCAUGU.
For B6, the binding signal was 0.0678 KA relative to UGCAUGU.
Regarding B7, the binding signal was 0.305 KA relative to UGCAUGU.
Consider B8, for which the binding signal is 0.0483 KA relative to UGCAUGU.
For B9, the binding signal was 0.288 KA relative to UGCAUGU.
For B10 the value was 0.162 KA relative to UGCAUGU; for B11, 0.0718 KA relative to UGCAUGU.
B12: the binding signal was 0.129 KA relative to UGCAUGU.
In the case of B13, the binding signal was 0.154 KA relative to UGCAUGU.
With B14, the binding signal is 0.113 KA relative to UGCAUGU.
Consider B15, for which the binding signal was 0.176 KA relative to UGCAUGU.
In the case of B16, the binding signal is 0.13 KA relative to UGCAUGU.
For the molecule B17, the binding signal is 0.0591 KA relative to UGCAUGU.
Consider B18, for which the binding signal is 0.0636 KA relative to UGCAUGU.
Regarding B19, the binding signal was 0.0443 KA relative to UGCAUGU.
Turning to B20, the binding signal is 0.123 KA relative to UGCAUGU.
In the case of B21 it was 0.283 KA relative to UGCAUGU.
With B22, the binding signal is 0.0608 KA relative to UGCAUGU.
Regarding B23, the binding signal was 0.115 KA relative to UGCAUGU.
With B24, the binding signal was 0.0501 KA relative to UGCAUGU.
On to B25, for which the binding signal was 0.0517 KA relative to UGCAUGU.
In the case of B26 it was 0.0947 KA relative to UGCAUGU.
With B27, the binding signal was 0.107 KA relative to UGCAUGU.
With B28, the binding signal is 0.123 KA relative to UGCAUGU.
Turning to B29, the binding signal is 0.115 KA relative to UGCAUGU.
B30: the binding signal is 0.206 KA relative to UGCAUGU.
For B31 the value was 0.146 KA relative to UGCAUGU.
